Here are results for 44 sequences from the supplement of paper PMC11417369.

± gives the standard deviation of the averaged measurements. Some of the results follow.

For this assay, the system named is PfAP2-EXP AP2 domain (GST-tagged). In words: gcPBM binding intensity (ln(normalized median fluorescence intensity)); higher = stronger DNA binding. The gist of the method:
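GST-tagged P. falciparum DNA-binding domains produced in E. coli were incubated for 1 h on an Agilent 4 × 180k array of primer-extended double-stranded 36-bp intergenic genomic probes with negative controls. Binding intensity is the highest Masliner-normalised natural-log median intensity across replicate spots of either probe orientation, with bound protein detected by Alexa488 anti-GST antibody at 488 nm.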
Take “AATGAATTAATAGCTACACACGGTAACATAATAACT [CACACA_site851]”: the “gcPBM binding intensity (ln)” value turned out to be 8.69 ± 0.37.
Next, “TATAATAATGCCTTTACATGCAATAATAAAGAAATA [TGCATGCA_site631]”: 8.7 ± 0.23; “TGTGTTAATAGAAAAAGTACATATACATATATATAT [XGTACX_site4951]”: 9.65 ± 0.18; “TGCACAGACGGACACACACACAACTAAAAAATAATG [CACACA_site5424]”: 8.77 ± 0.45.
For “TACATAAAAATATCACGTACATATAATCATATACTA [XGTACX_site3505]”, the “gcPBM binding intensity (ln)” value was 8.31 ± 0.4.
For the sequence “ATATTTCATCTAGCTACACACATATAACAAATTACT [CACACA_site7843]”, the “gcPBM binding intensity (ln)” value stood at 8.8 ± 0.48.
Next, “TTCTTTTTCCAATTTGCACACCACAAAATTATATAT [CACACA_site2909]”: 9.38 ± 0.39; “ACCTTTGATATATACACACACATAAAAAAAATATAT [CACACA_site6952]”: 9.22 ± 0.63; “CTTGTATTTAAACACACACACACTTTCTTTTTTTAA [CACACA_site5133]”: 8.64 ± 0.49.
The value for “AACGTTCATATTTCCACACACAAAAAATAAATATAA [CACACA_site3344]” was 8.65 ± 0.57; that for “AATATTATAATATAAACACACAAAATTCAATTATAT [CACACA_site3789]” was 8.55 ± 0.44; that for “TTAATATTAATATATTGTACATATATGCACATATTT [XGTACX_site6569]” was 8.46 ± 0.28.
With “AAAAATAAAGGGCGAAAAAAAAAAAAAAAAAAAAAA [GTGCAC_negctrl_site671]”, the “gcPBM binding intensity (ln)” value turned out to be 8.13 ± 0.65.
The value for “ATATTTTATTATTGTTGTACTTTTTTTTGATTGTTT [XGTACX_site4090]” was 8.81 ± 0.42; that for “TTGACACGTATATGCACACACCCGTAAGTGTCCATT [CACACA_site2764]” was 8.91 ± 0.45; that for “TCACACATATATTCATGTACATATTAATATTTCCAT [XGTACX_site5387]” was 8.85 ± 0.44.
The value for “AGTTATAAACATATGTGTACTTATAAAAACATATAG [XGTACX_site3268]” was 8.58 ± 0.27.
The value for “TTTAATATTTTTCAATGTAGAAAGTTTGTCTGTTAT [CACACA_negctrl_site973]” was 8.14 ± 0.49; that for “TTTTTTATGAACACGTCACACATCATTAAAATGTTT [CACACA_site5934]” was 8.35 ± 0.26; that for “TTTTGTAAAAAAAAAAAAAAAGGAAAATTAAAATAA [CACACA_negctrl_site803]” was 8.36 ± 0.43.
Take “TTGATGATATAAAAAAGTACTTATATTATATTATAT [XGTACX_site6492]”: the “gcPBM binding intensity (ln)” value amounted to 8.35 ± 0.24.
The value for “TTTCCTATTTAATATAGTACATAAGAAATAATTTTA [XGTACX_site5952]” was 8.12 ± 0.15; that for “TTGTTTTTAGTTTATACACACCATATTAATATAATG [CACACA_site7452]” was 8.74 ± 0.39; that for “ATTTGGCATGGACACACACACACACCGACAGACATA [CACACA_site4491]” was 8.71 ± 0.38.
Next, “TTATATTATGGACACACACACAAAAAAAAAAAAAAA [CACACA_site7744]”: 8.42 ± 0.37; “ATATATATATAAAGTTGTACATTTTTTATTTTTTCA [XGTACX_site7847]”: 9.79 ± 0.13; “AAATTAATTAAATATACACACATATATAAATATATA [CACACA_site391]”: 8.37 ± 0.17.
The value for “CAATTTTAAGTAATCAATTTTTTTAAAAAACACAAA [CACACA_negctrl_site961]” was 8.23 ± 0.44; that for “AAAATATATTATATATGTACATATTACGTTTTAATT [XGTACX_site2518]” was 8.62 ± 0.34; that for “TTAAAACCAAAACACAGTACATATATATATATATAT [XGTACX_site5668]” was 10.3 ± 0.23.
“TTTGTTAATTATAAATGTACATATTATATATATATA [XGTACX_site8870]”: the “gcPBM binding intensity (ln)” value turned out to be 9.71 ± 0.12.
Next, “GCATAATATACTCTTACACACCATTTCTATATACAT [CACACA_site6799]”: 9.14 ± 0.45; “TATATATATATGTATACACACATATGTATGTTATGT [CACACA_site4053]”: 9.65 ± 0.28.
As for “TTTTTCATTTCTGCATTTATTTATAAATAAATATTT [CACACA_negctrl_site368]”, the “gcPBM binding intensity (ln)” value was 8.96 ± 0.37.
Next, ATATATATTATATAAGTGCATAATATTCTTTCTTTT: 8.54 ± 0.071.
Next, “TATAAGAGAATATATACACACAAAAATATATACAGT [CACACA_site1668]”: 8.82 ± 0.51; “TACACGCATGGACACACACACACACCCATATATATA [CACACA_site4522]”: 8.74 ± 0.3.
Next, “TTCAAATATAAATACACACACATAGCTACAAAATAA [CACACA_site4172]”: 8.95 ± 0.42; “TTTTTTTATCAATGTTGTACTTTTTTTTTTTTCCAT [XGTACX_site8864]”: 8.61 ± 0.43.
“TATATATTTTGTGTCTGTACACATATTATTAATTCC [XGTACX_site7507]”: the “gcPBM binding intensity (ln)” value was found to be 8.59 ± 0.35.
Next, “TATCATATATAAAGAGGTACGTAAGAATAGAAAATT [XGTACX_site798]”: 9.28 ± 0.57.
With “TAAATACATAAATACACACACATATATTATATATAT [CACACA_site4310]”, the “gcPBM binding intensity (ln)” value was found to be 8.62 ± 0.14.
The value for “ATATTAACTATCATAACACACACAGTAGACATATTT [CACACA_site6941]” was 8.67 ± 0.44.
TTCTTAAAAGGAAAGGTGCAACTTTATCATTTTCTT: the “gcPBM binding intensity (ln)” value came to 8.51 ± 0.18.
